Reference: the supplement of paper PMC11417369
Some of the results follow.

Tested on: PfAP2-HC AP2 domain (GST-tagged)
Test: gcPBM binding intensity (ln(normalized median fluorescence intensity)); higher = stronger DNA binding
Summary of the method: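 GST-tagged P. falciparum DNA-binding domains, expressed in E. coli (about 25 μg on average), were applied for 1 h to an Agilent 4 × 180k array of primer-extended double-stranded 36-bp intergenic genomic probes plus negative controls. The binding buffer was 1× PBS with 1% milk, 0.2 mg/ml BSA, 0.5% salmon testes DNA and 0.03% Triton X-100. Bound protein was detected with Alexa488 anti-GST antibody and scanned at 488 nm. Binding intensity is the highest Masliner-normalised natural-log median intensity across replicate spots of either probe orientation.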

| Sequence | gcPBM binding intensity (ln) |
| --- | --- |
| TGACTACATAAAATGACACACACAAACTTTAAAATT [CACACA_site9151] | 10.2 |
| ATATATTTTTAGCACAGTACAATATAATTAAATATA [XGTACX_site6779] | 9.62 |
| ATATGCTAATAAAATTGTACATATTATTCATATTGT [XGTACX_site2344] | 9.68 |
| ATAAATACTTTTTGGTGTACACTTTTAAATGAAAAA [XGTACX_site3042] | 9.52 |
| ATTTTTCCTCTCTTTTGTACTTATATATATATATAT [XGTACX_site7405] | 9.88 |
| CAATTAAAGAAAAACAGTACGTGTATCAAACATCCT [XGTACX_site8990] | 9.94 |
| ATATTATATAATAATGCATGCACCTTATTTTCATTT [TGCATGCA_site405] | 9.89 |
| AACAAAATAAAAATAACACACACATTTATATATATA [CACACA_site8313] | 10.6 |
| ATTATATTATTTTAAAGTACACACATATATTAATAT [XGTACX_site4769] | 9.9 |
| AAAAGTTGTTTATAATGTACAAGGTAGAAAAAAACA [XGTACX_site1454] | 9.67 |
| TAAATGGATTGTTCAGGTACACATAAATATGATATT [XGTACX_site6963] | 9.57 |
| TAAAAATAATATATTTGTACATATGTGTATACATAA [XGTACX_site741] | 9.48 |
| TATAAATACATACATACACACATATATATATATATT [CACACA_site6116] | 10 |
| TCCTAAAAAAAAAAAAAAAATGAAAAAGGAAAAAAA [CACACA_negctrl_site1646] | 9.3 |
| CAAGCACAGAAACACACACACACACCGACACAGACA [CACACA_site4359] | 10.9 |
| AAAAAAAAAAAAAAAAGTACTAAATGTAAAAGAATA [XGTACX_site2164] | 9.6 |
| AATGTATTAAAATTACGTACATATGCACATTTTATA [XGTACX_site5046] | 9.69 |
| TTTTTTATTTTGTGCACACACATAAAAATATAAATA [CACACA_site6497] | 9.84 |
| TACTCTTTCCAGAAGTGTACATAGAAATAATTACAT [XGTACX_site2668] | 9.55 |

| Sequence | gcPBM binding intensity (ln) |
| --- | --- |
| TATATATGTATGTATGCATGCCCTTTTTTAAAAAAA [TGCATGCA_site434] | 9.59 |
| AAAAAAAAAAAAAAAAAAATAAAAAATAAATAAATA [CACACA_negctrl_site1498] | 9.23 |
| AAGAAAAAACAAACATGTACACATAATTTAGTTTTT [XGTACX_site3121] | 9.67 |
| TAGTATTATTATTATGCACACAAAAATATTTATACA [CACACA_site9219] | 9.69 |
| TTTTTTTTTTTTTTTTGTACATAATTATATATTTAC [XGTACX_site7540] | 9.33 |
| AGCATTTCTTTTACATGTACATAATATTTTTAATAA [XGTACX_site1968] | 9.7 |
| TTTGAAAAGTATGAGGTGCAAAAAATGTAATGAAAT | 9.85 |
| TATATTATTATGCATAGTACGTACTGTGATAAGAAT [XGTACX_site2956] | 9.73 |
| TTTTTCTGTCGTTGTTGTACTTGAGGAGTAACAATT [XGTACX_site7852] | 9.64 |
| CATTTTAAAACAGACACACACCAAAAAAAAAAAAAA [CACACA_site6259] | 9.88 |
| TACAAATACATTACATGTACATATTTAATAATATCA [XGTACX_site2075] | 9.66 |
| TTTTCAATTAATAATACACACATGTATATATTATTA [CACACA_site3311] | 9.64 |
| AAGAAAAATATATATATAAATAAATAAATATATATA [TGCATGCA_negctrl_site330] | 9.68 |
| TTTCTGATATTTTTATATTTTCTTATATATATATAT [GTGCAC_negctrl_site652] | 9.83 |
| TTTAAATTTTAATATGCACACAAAATGTTATATTAA [CACACA_site8015] | 9.41 |
| GTATATAAGTATATATGTACATATATTTTATATATA [XGTACX_site4745] | 9.68 |
| AATACGAAGGATAAGAGTACTAATTAAATAAATGAA [XGTACX_site523] | 9.79 |
| ATATAAGAATAAATAGTGCAAAATAAATGATTATTT | 9.86 |
| TTTTTTTTTTTTTTGGTGCGATCTTTTAAATGATCC | 9.26 |

| Sequence | gcPBM binding intensity (ln) |
| --- | --- |
| TTTTATAATTTAAAATAATGAAACTTCTTTCTATTT [TGCATGCA_negctrl_site324] | 9.41 |
| GCCTTTTTATTTAGAACACACACAAAAAAAAAAAAA [CACACA_site8520] | 9.67 |
| TATTATATCGAACACTGTACTTTTTTATTCAACCTA [XGTACX_site493] | 9.68 |
| ATATATATATATATAGTGCAAATATCTTCTTTATAA | 9.68 |
| TAATAAACCAAACTAAACAATATATCAAAAAGCACA [CACACA_negctrl_site269] | 9.91 |
| AATAATAAATATATATATATATATATATATATATTT [CACACA_negctrl_site786] | 9.49 |
| TATATACAAAATGCCTGTACATATATATTTATTTAT [XGTACX_site761] | 9.77 |
| CATGCAAAAAATTCCACACACACACCCACATATAAA [CACACA_site1229] | 10.8 |
| CTTTCTTATTTGAACGCATGCATTTGTACCTTTTAT [TGCATGCA_site671] | 9.95 |
| TATTTAATAAAGAAATAAAAATAAAGAAAAAAAAAA [CACACA_negctrl_site74] | 9.49 |
| ACCTACATAACATACACACGCATATATATAATTTTA [CACACA_site2847] | 9.97 |
| AATTATTTATCGGAATGTACATAAAAACATATGTAT [XGTACX_site7443] | 9.61 |
| AATAATATCATTTAGACACACACTCTTACAATATGT [CACACA_site8832] | 9.93 |
| AATAGCCCATATGGAATACACACTGAAAATAAAAAA [CACACA_site3373] | 10.2 |
| TATAAATTTGTTGTTGCATGCAGTATACCAAAAAAA [TGCATGCA_site445] | 9.57 |
| ATTTGTAATTTATATTCACACATTCAAAAAAATGAG [CACACA_site6057] | 9.42 |
| AAAAATATAATATAATGTACACAAAAAAAAAAAAAT [XGTACX_site4914] | 9.79 |
| TAAAATGTAATCTGAACACACATATTTTTTTAATAT [CACACA_site1768] | 9.67 |
| GTATTATATTTCAACTGTACGTAAAACTATTAAAAT [XGTACX_site3679] | 9.55 |
